# Data taken from PubChem BioAssay AID2073 (Sanford-Burnham Center for Chemical Genomics, 2009).
# This is one part of the list. The main result of the screen is listed elsewhere. These columns were measured beside it and carry no call.
# Target: Voltage-dependent N-type calcium channel subunit alpha-1B (Homo sapiens) (UniProt Q00975)
# Experiment: disruptors of CaV2.2 binding to Mint1 – biochemical, HTRF (AID 2073)
# Conditions: HTRF protein-protein interaction, Mint1-CaV2.2; measured here: average of repeat tests; at 20 µM; stronger effect = higher value
# Sequence of UniProt Q00975 (Q00975 whole entry, looked up): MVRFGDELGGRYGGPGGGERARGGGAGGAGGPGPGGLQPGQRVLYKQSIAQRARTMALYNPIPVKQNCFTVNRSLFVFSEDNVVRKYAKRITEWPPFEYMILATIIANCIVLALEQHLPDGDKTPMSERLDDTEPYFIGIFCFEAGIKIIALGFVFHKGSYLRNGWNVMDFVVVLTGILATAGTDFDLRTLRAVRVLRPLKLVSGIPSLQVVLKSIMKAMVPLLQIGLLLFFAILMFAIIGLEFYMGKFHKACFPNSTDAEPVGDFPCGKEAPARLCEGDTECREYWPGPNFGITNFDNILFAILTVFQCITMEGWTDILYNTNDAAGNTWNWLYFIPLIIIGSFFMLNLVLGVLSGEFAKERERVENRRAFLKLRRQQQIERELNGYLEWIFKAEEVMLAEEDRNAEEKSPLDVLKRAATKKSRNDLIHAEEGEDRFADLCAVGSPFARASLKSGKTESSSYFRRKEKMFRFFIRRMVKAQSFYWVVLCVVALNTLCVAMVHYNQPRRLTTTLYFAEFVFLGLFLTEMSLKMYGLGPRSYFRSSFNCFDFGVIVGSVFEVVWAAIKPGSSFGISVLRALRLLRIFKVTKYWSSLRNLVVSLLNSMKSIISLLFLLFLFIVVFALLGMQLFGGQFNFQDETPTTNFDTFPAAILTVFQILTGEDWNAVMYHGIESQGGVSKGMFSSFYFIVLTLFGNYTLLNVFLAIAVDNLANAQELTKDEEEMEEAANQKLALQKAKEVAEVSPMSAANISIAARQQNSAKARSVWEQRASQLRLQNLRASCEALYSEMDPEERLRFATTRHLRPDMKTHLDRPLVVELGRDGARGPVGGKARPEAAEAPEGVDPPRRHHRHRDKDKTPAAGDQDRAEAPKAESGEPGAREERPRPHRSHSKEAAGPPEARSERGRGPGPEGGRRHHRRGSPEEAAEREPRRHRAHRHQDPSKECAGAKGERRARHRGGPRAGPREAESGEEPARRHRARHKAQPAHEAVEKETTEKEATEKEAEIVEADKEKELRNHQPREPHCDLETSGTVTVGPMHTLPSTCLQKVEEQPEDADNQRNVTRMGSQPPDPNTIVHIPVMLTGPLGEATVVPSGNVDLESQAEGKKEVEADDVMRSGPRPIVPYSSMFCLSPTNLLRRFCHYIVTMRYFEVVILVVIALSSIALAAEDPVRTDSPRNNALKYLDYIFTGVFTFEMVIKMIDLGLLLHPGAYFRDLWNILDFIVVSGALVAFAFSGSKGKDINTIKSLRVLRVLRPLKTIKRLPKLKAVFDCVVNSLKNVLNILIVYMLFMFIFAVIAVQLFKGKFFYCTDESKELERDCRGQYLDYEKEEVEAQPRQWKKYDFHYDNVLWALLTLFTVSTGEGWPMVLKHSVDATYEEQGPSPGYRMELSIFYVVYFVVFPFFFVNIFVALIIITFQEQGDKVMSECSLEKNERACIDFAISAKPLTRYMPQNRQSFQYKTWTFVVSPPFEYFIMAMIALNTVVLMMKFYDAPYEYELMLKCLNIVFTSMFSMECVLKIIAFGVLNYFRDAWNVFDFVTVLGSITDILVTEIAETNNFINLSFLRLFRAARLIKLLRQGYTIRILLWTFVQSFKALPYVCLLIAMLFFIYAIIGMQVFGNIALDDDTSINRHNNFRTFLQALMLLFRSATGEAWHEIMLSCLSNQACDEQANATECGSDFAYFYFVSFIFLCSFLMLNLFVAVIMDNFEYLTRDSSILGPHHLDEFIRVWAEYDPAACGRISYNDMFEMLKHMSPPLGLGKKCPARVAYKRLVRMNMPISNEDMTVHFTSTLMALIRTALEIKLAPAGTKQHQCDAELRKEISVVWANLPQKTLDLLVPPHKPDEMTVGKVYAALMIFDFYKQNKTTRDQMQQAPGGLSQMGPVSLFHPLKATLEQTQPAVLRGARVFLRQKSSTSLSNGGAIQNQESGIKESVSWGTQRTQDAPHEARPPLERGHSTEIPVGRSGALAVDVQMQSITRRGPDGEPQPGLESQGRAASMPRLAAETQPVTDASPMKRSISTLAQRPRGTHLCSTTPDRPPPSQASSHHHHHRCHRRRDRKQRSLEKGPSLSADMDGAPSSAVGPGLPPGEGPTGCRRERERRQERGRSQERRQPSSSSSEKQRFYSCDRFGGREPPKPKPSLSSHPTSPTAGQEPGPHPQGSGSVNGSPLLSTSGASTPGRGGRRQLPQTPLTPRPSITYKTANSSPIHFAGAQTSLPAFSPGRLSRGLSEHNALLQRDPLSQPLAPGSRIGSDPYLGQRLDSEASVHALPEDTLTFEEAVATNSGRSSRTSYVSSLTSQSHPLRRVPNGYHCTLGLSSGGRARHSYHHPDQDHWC
row,SMILES,inhibition [%]
1,CCOc1cc(/C=C(/C#N)C(=O)Nc2ccc(OC)cc2)ccc1OCc1ccc(C(=O)O)cc1,69.9
2,Cc1cc(C)c2c(=O)n(CC(=O)Nc3ccc(Br)c(C)c3)sc2n1,81.2
3,CC1=C(C(=O)O)N2C(=O)C(NC(=O)c3nn(C)c(C)c3Cl)C2SC1 (stereo not drawn),85.1
4,CC1(C)N([O-])c2cc([N+](=O)[O-])ccc2[N+]1=O,93.4
5,CC(=O)N(C1=C(Cl)C(=O)c2ccccc2C1=O)C1CCCCC1,85.7
6,Cn1sc(=O)c2cc(S(=O)(=O)NC3CC3)ccc21,60.9
7,O=C(Nc1c[nH]c(=O)[nH]c1=O)c1ccc2c(c1)C(=O)N(c1cccc([N+](=O)[O-])c1)C2=O,76.3
8,Cc1cc(C)c2c(=O)n(CC(=O)N3CCC(N4CCCCC4)CC3)sc2n1,92.8
9,O=C1c2ccccc2-c2onc3ccc(NCCCn4ccnc4)c1c23,62.7
10,COc1ccc(CC(=O)n2[nH]c(=O)ccc2=O)cc1OC,63.7
11,COC/C=C/C1=CC2=CC(=O)C(C)(OC(=O)CCC(=O)OC)C(=O)C2=CO1 (stereo not drawn),61.2
12,CC(=O)Oc1ccc(-c2ccc(C(=O)NCCc3ccc(S(N)(=O)=O)cc3)cc2)cc1,59.9
13,COc1ccccc1NS(=O)(=O)c1cc(NC(=O)c2ccncc2)ccc1N1CCCC1,41.7
14,COc1cc(NC(=O)c2ccccc2F)ccc1NC(=O)c1cc2ccccc2o1,47.9
15,CCc1ccc(N2CSC3=C(C#N)C(c4cccs4)CC(=O)N3C2)cc1 (stereo not drawn),50.3
16,CC(=O)N(C1=C(Cl)C(=O)c2ccccc2C1=O)c1ccc(C(=O)O)cc1,88.9
17,Cc1ccc(N=c2ssnc2Cl)cc1,75.8
18,Cc1c2c(=O)n(-c3nc4ccccc4s3)nc-2cc(O)n1Cc1ccccc1,48.9
19,Cc1ccn2c(-c3csc(NCc4ccco4)n3)c(C)nc2c1,46.9
20,Cc1c(C(=O)OCC2CCCO2)[nH]c2c1C(=O)CC(c1ccco1)C2 (stereo not drawn),53.7
21,NC1=CC(=O)c2cccc3cccc1c23,68.7
22,N#Cc1nc(-c2ccc(OCc3ccc(Cl)cc3)cc2)oc1N1CCC(C(N)=O)CC1,50.7
23,COc1ccc(OC)c2c1C(=O)C(Cl)=C(Cl)C2=O,80.8
24,O=[N+]([O-])c1ccc(-c2cc(-c3ccc(Cl)cc3)n[nH]2)cc1,65.3
25,CCOC(=O)c1cc(-c2ccc(N3CCOCC3)cc2)nn1-c1ccccc1C(=O)O,79.1
26,Cc1cc(=O)oc2cc(NC(=O)c3cccc(Br)c3)ccc12,31.1

row,SMILES,inhibition [%]
1,COC(=O)/C=C\C(=O)Nc1cccc([N+](=O)[O-])c1,44.9
2,COc1cc(NC(=O)c2ccc(F)cc2)ccc1NC(=O)c1cc2ccccc2o1,55.2
3,CC(=O)NS(=O)(=O)c1ccc(NC(=O)/C=C/c2ccc(C)o2)cc1,68
4,O=C1C2C(C(=O)N1/N=C/c1ccc(N3CCCCC3)o1)C1C=CC2C12CC2 (stereo not drawn),41.8
5,COc1ccc(NC(=O)c2cc3c(=O)n(C)c4ccccc4c3s2)cc1OC,53.3
6,O=C(NCCO)c1cc(-c2cc(C(=O)NCCO)c3ccccc3n2)nc2ccccc12,53.6
7,COc1cc(/C=C2\SC(=O)N(CC(=O)Nc3ccc(C)cc3)C2=O)cc(Cl)c1OCC(=O)O,71.5
8,O=C(N/N=C/c1coc2ccccc2c1=O)c1cc(O)cc(O)c1,41.2
9,Cc1ccc2oc(-c3cc(NC(=O)c4ncn[nH]4)ccc3O)nc2c1,63.3
10,Cc1c(N=Nc2c(-c3ccc([N+](=O)[O-])cc3)[nH]n(C(N)=S)c2=O)cccc1[N+](=O)[O-],50.8
11,C=Cc1ccc(C(=O)N2CCCC(CCC(=O)N3CCN(c4ccccn4)CC3)C2)cc1 (stereo not drawn),47.3
12,O=c1[nH]sc2ccccc12,70.2
13,NS(=O)(=O)c1ccc(-c2ccc(C=C3C(=O)c4ccccc4C3=O)o2)cc1,57.6
14,CN1CSC2=C(C#N)C(c3cccc(OCc4ccccc4)c3)CC(=O)N2C1 (stereo not drawn),48.3
15,N#CC1=C2SCN(c3ccc(F)cc3)CN2C(=O)CC1c1cccc(F)c1 (stereo not drawn),48.5
16,CCOC(=O)c1ccc(N=c2ssnc2Cl)cc1,66.2
17,COc1ccc(C2CC(c3ccccc3)=NN2c2ccc(Cl)c(C(=O)O)c2)cc1 (stereo not drawn),50.9
18,CCN(CC)C(=O)COC(=O)c1cc(-c2ccco2)nc2ccccc12,48.3
19,COCc1c(N)c(C)nc(Cl)c1C#N,61
20,COc1ccc2nc(NC(=O)/C=C/c3ccc4c(c3)OCO4)sc2c1,42.6
21,O=C(CN1C(=O)/C(=C2\SC(=S)N(CCS(=O)(=O)O)C2=O)c2ccccc21)Nc1cccc(Br)c1,69.4
22,CSc1nc(SCCO)c2sc3nc(-c4ccco4)c4c(c3c2n1)CC(C)(C)OC4,48.3
23,O=C(O)CCN1C(=O)/C(=C2\C(=O)N(Cc3ccccc3Cl)c3ccccc32)SC1=S,87.5
24,Cc1cc(C)c2c(=O)c(/C=C3\NC(=S)NC3=O)coc2c1,52.7
25,O=C(NCc1ccco1)c1ccc([N+](=O)[O-])o1,49.8
26,COCCn1c(SCC(=O)Nc2ccc(F)cc2)nc2c([nH]c3ccccc32)c1=O,53.3

row,SMILES,inhibition [%]
1,CCOC(=O)C1CCCN(C(=O)Cn2sc3nc(C)cc(C)c3c2=O)C1 (stereo not drawn),88.8
2,O=c1[nH]c2ccccc2c(O)c1O,96.9
3,Cc1ccc(NC(=O)CN2C(=O)N/C(=C/c3cccn3-c3ccc(C(=O)O)cc3)C2=O)cc1,73.6
4,Nc1ccc(-c2nc3c(Cl)c(N)ccc3[nH]2)cc1,66.2
5,COc1ccc(NC(=O)c2cc(-c3ccco3)nc3ccccc23)cc1S(=O)(=O)N1CCOCC1,50.5
6,Cc1ccc(-n2cccc2/C=C2\C(=N)N3N=C(c4ccco4)SC3=NC2=O)cc1,59.6
7,O=C1c2c([N+](=O)[O-])cc([N+](=O)[O-])cc2S(=O)N1Cc1ccccc1 (stereo not drawn),53.3
8,COc1cc(OC)c(C2CC(=O)N3CN(c4ccccc4)CSC3=C2C#N)cc1OC (stereo not drawn),35.2
9,CCNC(=O)COC(=O)c1cc(-c2ccco2)nc2ccccc12,56.9
10,Cc1ccc(/C=C/C(=O)NCc2ccc(S(N)(=O)=O)cc2)o1,52.1
11,COc1ccc(NC(=O)CN2C(=O)/C(=C3\SC(=S)N(CCC(=O)O)C3=O)c3ccccc32)cc1,68.2
12,CCOC(=O)c1ccc(N2C(=O)C=CC2=O)cc1,68.8
13,Cc1cc(C)c2c(=O)n(CC(=O)NCCCN3CCN(c4ccccc4F)CC3)sc2n1,90.8
14,COc1ccc(CC(=O)Nc2ccc(-c3nnc(-c4ccccc4)o3)cc2)cc1,58.7
15,COc1ccc(NC(=O)c2cc3c(COC(C)=O)cnc(C)c3oc2=Nc2cccc(C(=O)O)c2)c(OC)c1,88.2
16,C(=C\c1ccco1)/C1=NN(c2ccccc2)C(c2ccco2)C1 (stereo not drawn),50.2
17,COc1ccccc1OCCOc1ccc(/C=C2/C(=N)N3OC(C)=CC3=NC2=O)cc1OC,44.1
18,O=C(O)c1c2c(nc3ccccc13)/C(=C/c1ccc(O)cc1)CC2,56.1
19,O=C(Nc1nc2cc3c(cc2s1)OCCO3)c1ccc(N2C(=O)CCC2=O)cc1,65.9
20,CCCCCCc1cc2cc(-c3nnc(-c4ccccc4)o3)c(=O)oc2cc1O,63.3
21,COc1ccc(OC)c(C2CC(=O)N3CN(c4ccccc4)CSC3=C2C#N)c1 (stereo not drawn),43.1
22,Cc1cc(C)nc(NC(=S)Nc2cccc(Cl)c2Cl)c1,76.7
23,COc1ccc(Cl)cc1NC(=O)c1nnn(CC(=O)Nc2ccc(OC)c(OC)c2)c1N,52.9
24,Cc1ccc(-c2nc3c(c(=O)[nH]c(=O)n3Cc3ccccc3)n2C)o1,58.4
25,CCOc1ccc(NC(=O)Cn2sc3nc(C)cc(C)c3c2=O)cc1,85.1
26,O=C1C=CC(=O)N1CCNc1ncc(C(F)(F)F)cc1Cl,59.6

row,SMILES,inhibition [%]
1,O=C(O)c1ccc(-n2cccc2/C=C2/NC(=O)N(c3cccc(Cl)c3)C2=O)cc1,53.4
2,Nc1ncnc2oc(-c3ccco3)c(-c3ccco3)c12,48
3,CCN1C(=O)c2cccc3cccc1c23,47.5
4,O=C(NCc1ccco1)c1ccc(Cl)nc1,57.5
5,Cc1c(N2C(=O)c3ccc4c5c(ccc(c35)C2=O)CC4)c(=O)n(-c2ccccc2)n1C,41.2
6,Cc1ccc(C2CC(=O)N3CN(c4ccc(Br)cc4)CSC3=C2C#N)o1 (stereo not drawn),47.8
7,O=c1[nH]c(/C=C/c2ccccc2Cl)nc2ccccc12,45.5
8,CCc1nc2sc3c(O)cc(=O)[nH]c3c2cc1C,35.8
9,COc1ccc2[nH]c(=O)c(CN(C3CCCCC3)C(c3nnnn3Cc3ccco3)C(C)C)cc2c1 (stereo not drawn),48.8
10,CNc1nc(-c2ccccc2)[n+](-c2ccc(C)cc2)s1,96.1
11,O=C1Nc2ccccc2C(=O)C1(Cl)Cc1ccccc1 (stereo not drawn),76.7
12,O=C(N/N=C/c1ccc([N+](=O)[O-])cc1)c1cc(-c2ccc3c(c2)OCO3)n[nH]1,46.8
13,COc1cc(/C=C2\SC(=O)N(c3ccc(Cl)cc3)C2=O)cc([N+](=O)[O-])c1O,85.5
14,Cc1nc2ccccn2c1-c1csc(Nc2cccc(O)c2)n1,51.3
15,O=C1C=C(c2ccc(Cl)cc2)C(=O)N1Nc1ccccc1,66.6
16,CNC(=S)/N=C(\Nc1ccc(C)cc1)c1ccccc1,85.3
17,COc1ccc(/C=C2\SC(=S)N(CCC(=O)Nc3ccc(C(=O)O)cc3)C2=O)cc1OC,86.8
18,CCOC(=O)N1CCN(C(=O)CCN2C(=O)/C(=C\c3cccc(OC)c3)SC2=S)CC1,62.5
19,CCOC(=O)c1sc2nc3c(SCCC(=O)O)cc(C(=O)c4cc(OC)ccc4O)cn3c(=O)c2c1C,87.4
20,Cc1cccc(NC(=S)NC2CCCCC2)n1,69.5
21,CCN(CC)CCNC(=O)c1cc(-c2ccco2)nc2ccccc12,51.4
22,COc1ccc(N2CSC3=C(C#N)C(c4cc(OC)c(OC)cc4OC)CC(=O)N3C2)c(OC)c1 (stereo not drawn),47.9
23,CCOC(=O)c1ccc(N=Nc2c(C)c(C#N)c(O)[nH]c2=O)cc1,56.7
24,Cc1cc(C(=O)N/N=C/c2cc(N=Nc3ccccc3)ccc2O)n[nH]1,56.6
25,O=C(COC(=O)c1c2c(nc3ccccc13)/C(=C/c1ccco1)CC2)NC1CCCC1,68.9
